# Measured values from PubChem BioAssay AID445 (National Center for Advancing Translational Sciences (NCATS), 2006).
# Among all 110,000 compounds or so, about 40 (0.04%) were called active. The inconclusive results got no clear call from the source; some entries with a clear call stand among them for comparison. Calls come from the whole dose curve; as a rule, active = well fitted curve in the direction sought with a large enough effect in the signal ratio (not every such curve was filed as active); inconclusive = small, poorly fitted or top-dose-only effect, or a change in a side signal; inactive = flat fitted curve, though single readings scatter; the % refers to the signal ratio. A potency beside an inconclusive call is a rough fit, not a confirmed value.
# Experiment: IkB Signaling;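 for IkBa stabilization activation: 0% = basal untreated cells and 100% = reference inhibitor full response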
# Details: ABC-DLBCL IkBa-CBG/CBR dual luciferase ratio (green luciferase fused to IkBa over red control in OCI-Ly3 lymphoma cells), 4 h, scaled: untreated 0%
# Method in brief: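 Curves were fitted separately to fusion (green), unfused (red) and ratio luminescence, then classed by r2, magnitude and activity. Cells: OCI-Ly3, 4 h compound plus doxycycline at 37C; 10 uM MG-132 defined full response.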
# [1] = IkBa stabilization activation: at 57.1 µM (top of the series), proteasome inhibitor 100% unless noted
# Potency is the fitted concentration of half-maximal effect.
compound,measurement,setting,value
Cc1ccc(-c2ccc(=O)n(CC(=O)N3CCN(c4cccc(C)c4)C(C)C3)n2)cc1 (stereo not given),IkBa stabilization activation,[1],inconclusive: 8.24% [signal inhibitor]
CC(=O)c1ccc(NC(=O)C2CCCN(S(=O)(=O)c3ccc4c(c3)CCCN4C(C)=O)C2)cc1 (stereo not given),IkBa stabilization activation,[1],inconclusive: 2.76% [signal inhibitor]
O=C(c1ccc(F)cc1)c1cn[nH]c1-c1ccccc1O,IkBa stabilization activation,[1],inactive
O=c1c(-c2cc(F)cc(F)c2)nc2cnc(N3CCOCC3)nc2n1C1CC1,IkBa stabilization activation,[1],"inactive: -1.66% [at 11.4 µM, scaled: untreated 0%, proteasome inhibitor 100%]"
Cc1ccc(OCC(=O)Nc2ccccc2C(=O)OCc2cc(=O)n3ccsc3n2)cc1C,IkBa stabilization activation,[1],inconclusive: 6.09% [signal inhibitor]
O=C(Cn1ccc2cc(S(=O)(=O)N3CCCCC3)ccc21)NCCc1ccc(Cl)cc1,IkBa stabilization activation,[1],inactive
COc1ccccc1-c1nnc(SCC(=O)NC2CCCCC2)o1,Potency,[1],"inconclusive: 10 µM [signal inhibitor, partial curve]"
Cn1nc(-c2ccc(C(=O)N3CCN(c4ccccc4)CC3)cc2)c2ccccc2c1=O,IkBa stabilization activation,[1],inactive
CCc1ccc(NC(=O)c2cc3nc(-c4ccc(C)cc4)cc(C(F)(F)F)n3n2)cc1,IkBa stabilization activation,[1],inactive
CCOC(=O)c1c(NC(=O)Cc2coc3cc(C)ccc23)sc2c1CCCC2,IkBa stabilization activation,[1],inconclusive: -1.95% [signal inhibitor]
CCC1CN(C(=O)N2CCC(C(=O)Nc3cc(C)ccc3C)CC2)c2ccccc2O1 (stereo not given),IkBa stabilization activation,[1],inconclusive: 2.49% [signal inhibitor]
O=C(Nc1nc2ccccc2n1CCOc1ccc(Cl)cc1)c1ccco1,Potency,[1],"inconclusive: 3.98 µM [rising, full curve]"
COc1ccc(C(CC(=O)Nc2cccc(C)c2C)N2Cc3ccccc3C2=O)cc1 (stereo not given),IkBa stabilization activation,[1],inconclusive: 0.351% [signal inhibitor]
COc1cc(-c2nnc(-c3ccco3)o2)ccc1OCc1ccccc1,IkBa stabilization activation,[1],inconclusive: 3.41% [signal inhibitor]
O=C(COc1ccc(F)cc1)Nc1ccccc1C(=O)OCc1cc(=O)n2nc(C3CC3)sc2n1,IkBa stabilization activation,[1],inconclusive: 3.72% [signal inhibitor]
Cc1nc2nc(SCc3ccc(F)cc3Cl)nn2c(C)c1Cc1ccccc1,IkBa stabilization activation,[1],inconclusive: -0.888% [signal inhibitor]
CC(NC(=O)c1ccc(Nc2nc3ccccc3n3nnnc23)cc1)c1ccccc1 (stereo not given),Potency,[1],"inconclusive: 31.6 µM [rising, partial curve]"
CCOc1ccc(S(=O)(=O)N(CC(=O)N2CCc3ccccc32)Cc2ccco2)cc1,IkBa stabilization activation,[1],inconclusive: 8.64% [signal inhibitor]
COC(=O)C1=C(C)N(c2cc(Cl)cc(Cl)c2)C(=O)C1,Potency,[1],"inconclusive: 3.16 µM [signal inhibitor, partial curve]"
Cc1ccc(-c2c(C)n3c4c(=O)n(C)c(=O)n(C)c4nc3n2-c2cccc(O)c2)cc1,IkBa stabilization activation,[1],inconclusive: -3.04% [signal inhibitor]
C=C1CC[C@@H]2O[C@]2(C)CC[C@@H]2[C@H]1CC2(C)C,IkBa stabilization activation,[1],"inactive: 0.272% [at 11.4 µM, scaled: untreated 0%, proteasome inhibitor 100%]"
COc1ccccc1CNc1nc(-c2ccc(N(C)C)cc2)nc2ccccc12,IkBa stabilization activation,[1],"inactive: 8.33% [at 11.4 µM, scaled: untreated 0%, proteasome inhibitor 100%]"
Cc1c(C)c(C)c(CC2(C)CSC2)c(CC2(C)CSC2)c1C,IkBa stabilization activation,[1],"inactive: 1.06% [at 11.4 µM, scaled: untreated 0%, proteasome inhibitor 100%]"
CCOC(=O)c1cc(S(=O)(=O)N2CCN(c3cc(C)ccc3C)CC2)[nH]n1,IkBa stabilization activation,[1],inconclusive: 7.21% [signal inhibitor]
CCOc1ccc(NCC2CCOC(C)(C)C2)cc1 (stereo not given),IkBa stabilization activation,[1],inactive
O=CCCCC=O,IkBa stabilization activation,[1],inconclusive: 9.51% [signal activator]
Cc1cc(C)n(CC(O)CN2c3ccccc3Sc3ccccc32)n1 (stereo not given),IkBa stabilization activation,[1],inconclusive: -5.9% [signal inhibitor]
CCOC(=O)c1ccc(NC(=O)CCc2nc(-c3ccccc3Cl)no2)cc1,IkBa stabilization activation,[1],inconclusive: -1.21% [signal inhibitor]
Cn1c(C(=O)NC2CCCCC2)cc2c(=O)n(C)c3ccccc3c21,IkBa stabilization activation,[1],inactive
O=C(Nc1ccc2c(c1)nc1n2CCCCC1)c1cc(S(=O)(=O)N2CCOCC2)ccc1Cl,IkBa stabilization activation,[1],inconclusive: 9.07% [signal inhibitor]
COc1ccc(CC(=O)NCc2nc3cccnc3n2Cc2ccc(C)cc2)cc1,IkBa stabilization activation,[1],inactive
CCCN(CCC)C(=O)CSc1nc2ccccc2c(=O)n1Cc1ccco1,IkBa stabilization activation,[1],inconclusive: 3.78% [signal inhibitor]
COCCCNc1nc2cc(OC)c(OC)cc2c2nc(-c3ccccc3)nn12,IkBa stabilization activation,[1],inconclusive: -0.224% [signal inhibitor]
CCOC(=O)CCc1c(C)c2ccc(O)cc2oc1=O,IkBa stabilization activation,[1],inactive
CCCCOC(=O)CNc1nnc(SCC(=O)OCC)[nH]c1=O,Potency,[1],"inconclusive: 20 µM [rising, partial curve]"
CCCCCCn1c(N(CC)CC)nc2c1c(=O)[nH]c(=O)n2C,IkBa stabilization activation,[1],inactive
COc1ccc(CNC(=O)CN2N=C(c3ccccc3)CCC2=O)c(OC)c1,IkBa stabilization activation,[1],inconclusive: 2.1% [signal inhibitor]
COc1ccc(C(=O)NCc2nnc(SCC(=O)Nc3ccccc3)n2-c2ccccc2)cc1,IkBa stabilization activation,[1],inactive
COc1cccc(-c2noc(-c3cccnc3)n2)c1,IkBa stabilization activation,[1],inactive
COc1cc(Cl)c(C)cc1NC(=O)c1ccc2c(SCC(=O)O)c3c(nc2c1)CCCC3,Potency,[1],"inconclusive: 25.1 µM [signal inhibitor, single point]"
Cc1ccc(-n2nnc(-c3nsc(NC(=O)c4cccc(Cl)c4)n3)c2C)cc1C,IkBa stabilization activation,[1],inactive
O=C(CSc1n[nH]c(-c2ccccc2)n1)NCCCc1ccccc1,IkBa stabilization activation,[1],inconclusive: -0.0592% [signal inhibitor]
CC1CCCCN1CCNC(=O)Cn1nc(-c2ccccc2)ccc1=O (stereo not given),IkBa stabilization activation,[1],inactive
CC(C)CCNC(=O)c1ccc2c(c1)N(Cc1cccc(Cl)c1)C(=O)c1ccccc1S2,IkBa stabilization activation,[1],inconclusive: 2.04% [signal inhibitor]
Nc1nc(N)c2nc(-c3ccccc3)c(N)nc2n1,IkBa stabilization activation,[1],inconclusive: 3.69% [signal activator]
same,IkBa stabilization activation,"at 25.6 µM (top of the series), proteasome inhibitor 100%",inactive: 1.63%
same,IkBa stabilization activation,"at 57.1 µM (top of the series), proteasome inhibitor 100%",inactive: -1.39%
COc1cccc(NC(=O)c2oc3ccccc3c2NC(=O)c2ccc3c(c2)OCO3)c1,IkBa stabilization activation,[1],inactive
O=C(OCc1csc(-c2ccccc2)n1)c1cccs1,IkBa stabilization activation,[1],inconclusive: 8.29% [signal inhibitor]
CC(C)OC(=O)c1cn(-c2ccccc2)nc1-c1ccco1,IkBa stabilization activation,[1],inactive
CC(=O)Nc1ccc(NC(=O)C2CCCN2S(=O)(=O)c2ccc3c(c2)CCCC(=O)N3)cc1 (stereo not given),IkBa stabilization activation,[1],inactive
Cc1ccc(OCC(=O)Nc2ccc3c(c2)nc(CCNC(=O)c2ccco2)n3C)cc1,IkBa stabilization activation,[1],inconclusive: 0.479% [signal inhibitor]
CCCc1c(OCCCOc2ccc(OCC(=O)O)cc2)ccc(CC=O)c1O,IkBa stabilization activation,[1],inconclusive: 1.53% [signal inhibitor]
O=C(Nc1ccc2oc(-c3cccnc3)nc2c1)c1ccc(-c2ccc(OC(F)(F)F)cc2)o1,IkBa stabilization activation,[1],inconclusive: 8.06% [signal inhibitor]
COc1ccc(N2CCN(C(=O)CN3C(=O)CSc4c3c(C)nn4-c3ccccc3)CC2)cc1,IkBa stabilization activation,[1],inconclusive: 11.7% [signal activator]
c1ccc(Nc2nc(-c3ccc4c(c3)OCO4)nc3ccccc23)cc1,IkBa stabilization activation,[1],"inactive: 2.16% [at 11.4 µM, scaled: untreated 0%, proteasome inhibitor 100%]"
CCN(CC)c1ccc(CN(C(=O)Cc2coc3ccc(C)cc23)C2CCS(=O)(=O)C2)cc1 (stereo not given),IkBa stabilization activation,[1],inconclusive: 1.24% [signal inhibitor]
c1ccc(-c2nnc(CN3CCN(c4ccccn4)CC3)o2)cc1,IkBa stabilization activation,[1],inactive
Cc1ccc(Cl)cc1NC(=O)CSc1ccc(C(=O)O)cn1,IkBa stabilization activation,[1],inactive
O=C1CC(c2ccccc2)Sc2nc(-c3ccc(F)cc3)nn21 (stereo not given),IkBa stabilization activation,[1],inconclusive: 0.197% [signal inhibitor]
CCC1CN(C(=O)N2CCC(C(=O)NCCc3ccccc3C)CC2)c2ccccc2O1 (stereo not given),IkBa stabilization activation,[1],inconclusive: -1.26% [signal inhibitor]
COc1ccc(C(=O)Nc2cc(C(C)C)c(O)c(S(=O)(=O)c3ccc(Cl)cc3)c2C)cc1,IkBa stabilization activation,[1],inconclusive: -1.04% [signal inhibitor]
COc1ccc(-c2nc3cc(C(C)C)ccc3o2)cc1NC(=O)COc1ccc(C)cc1C,IkBa stabilization activation,[1],inconclusive: 8.29% [signal inhibitor]
O=C(CSCc1cccc(F)c1)N1CCN(c2ccccc2)CC1,IkBa stabilization activation,[1],inconclusive: 1.33% [signal inhibitor]
O=C(Cn1c(=O)c2ccccc2n(CC(=O)Nc2ccc(F)cc2F)c1=O)NCCc1ccccc1,IkBa stabilization activation,[1],inconclusive: 9.01% [signal inhibitor]
COc1cccc(Cn2c(=O)c(-c3cc(F)cc(F)c3)nc3cnc(N4CCNCC4)nc32)c1,IkBa stabilization activation,[1],"inactive: 0.378% [at 11.4 µM, scaled: untreated 0%, proteasome inhibitor 100%]"
Cc1ccc(C)c(Nc2ncnc3onc(C)c23)c1,IkBa stabilization activation,[1],inactive
CCN(C(=O)c1cc2c(=O)oc3ccc(C)cc3c2s1)c1cc(OC)ccc1OC,IkBa stabilization activation,[1],inconclusive: 0.842% [signal inhibitor]
CN(C(=O)c1ccccc1C(=O)O)C1CC(C)(C)NC(C)(C)C1,IkBa stabilization activation,[1],inactive
Cn1cc(C(=O)N2CCN(c3cccc(C(F)(F)F)c3)CC2)c2c3ccccc3n(C)c2c1=O,IkBa stabilization activation,[1],inconclusive: 0.148% [signal inhibitor]
